# The supplement of paper PMC7826260
# This is one part of the list. Cleavage of a single-stranded DNA pool by Rep nickase domains was read by sequencing (3 µM enzyme, 1 h, 37 °C); shown is the middle of each 90-letter strand. Uncut reads are compared with the no-enzyme pool on a log2 scale; the lower, the more was cut; hits are not called. Because reads are shares of a total, they shift together; where an enzyme cuts many sequences, the uncut ones exceed 0.
# What was measured:
# Test in all cases: uncleaved DNA left, log2 of reads against the no-enzyme library (log2 ratio); higher = less cleavage (more negative = more Rep cleavage of the k-mer); sequences stand for … in CTCGTCCG…ACCGGAGA
# [1] = system: T1, Rep nickase domain of Muscovy duck circovirus
# T1 sequence (Rep 1-111, printed without the tag): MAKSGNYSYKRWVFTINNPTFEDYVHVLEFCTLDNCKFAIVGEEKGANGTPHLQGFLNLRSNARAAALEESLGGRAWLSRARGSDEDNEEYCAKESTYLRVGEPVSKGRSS
# Method: (§1)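 A pool of 90-nt single-stranded DNAs with seven random bases just before the constant AC of the nick site (name = the seven bases) was cut by 3 µM recombinant His6-SUMO-tagged Rep nickase domain (300 nM DNA, 50 mM HEPES pH 8.0, 50 mM NaCl, 1 mM MnCl2, 1 h, 37 °C, three replicates). Uncut DNA was amplified and sequenced.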
# [2] = system: T2, Rep nickase domain of banana bunchy top virus
# T2 sequence (Rep 1-94, printed without the tag): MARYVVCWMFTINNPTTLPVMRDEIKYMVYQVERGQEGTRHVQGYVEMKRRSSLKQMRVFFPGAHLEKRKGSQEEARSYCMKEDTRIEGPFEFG
# Method: as §1
# [3] = system: T3, Rep nickase domain of cabbage leaf curl virus
# T3 sequence (Rep 1-116, printed without the tag): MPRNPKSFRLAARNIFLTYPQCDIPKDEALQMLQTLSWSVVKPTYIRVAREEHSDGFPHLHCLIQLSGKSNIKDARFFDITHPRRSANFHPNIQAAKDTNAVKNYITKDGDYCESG
# Method: as §1
# [4] = system: T4, Rep nickase domain of chickpea chlorotic dwarf virus
# T4 sequence (Rep 1-124, printed without the tag): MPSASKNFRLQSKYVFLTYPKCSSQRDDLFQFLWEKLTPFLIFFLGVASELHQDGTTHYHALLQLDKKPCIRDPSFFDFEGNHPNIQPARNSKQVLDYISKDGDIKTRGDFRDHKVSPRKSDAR
# Method: as §1
# [5] = system: T5, Rep nickase domain of faba bean necrotic yellows virus
# T5 sequence (Rep 1-98, printed without the tag): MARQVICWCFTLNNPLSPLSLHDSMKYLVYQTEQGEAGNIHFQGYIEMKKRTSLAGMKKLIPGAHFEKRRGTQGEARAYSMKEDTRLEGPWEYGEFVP
# Method: as §1
# [6] = system: T6, Rep nickase domain of maize striate mosaic virus
# T6 sequence (Rep 1-117, printed without the tag): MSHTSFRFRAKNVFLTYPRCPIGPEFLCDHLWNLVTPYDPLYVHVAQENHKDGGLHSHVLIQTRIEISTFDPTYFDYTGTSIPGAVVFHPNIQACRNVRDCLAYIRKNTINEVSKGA
# Method: as §1
# [7] = system: T7, Rep nickase domain of porcine circovirus 2
# T7 sequence (Rep 2-116, printed without the tag): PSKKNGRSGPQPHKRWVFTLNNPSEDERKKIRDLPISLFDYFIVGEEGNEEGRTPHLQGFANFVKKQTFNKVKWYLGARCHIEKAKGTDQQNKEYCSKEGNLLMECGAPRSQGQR
# Method: as §1
# [8] = system: T8, Rep nickase domain of tomato golden mosaic virus
# T8 sequence (Rep 1-124, printed without the tag): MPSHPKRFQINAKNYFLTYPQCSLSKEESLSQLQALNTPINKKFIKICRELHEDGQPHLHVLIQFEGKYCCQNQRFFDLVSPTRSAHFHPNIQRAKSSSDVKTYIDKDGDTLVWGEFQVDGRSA
# Method: as §1
# [9] = system: T9, Rep nickase domain of tomato yellow leaf curl virus
# T9 sequence (Rep 1-136, printed without the tag): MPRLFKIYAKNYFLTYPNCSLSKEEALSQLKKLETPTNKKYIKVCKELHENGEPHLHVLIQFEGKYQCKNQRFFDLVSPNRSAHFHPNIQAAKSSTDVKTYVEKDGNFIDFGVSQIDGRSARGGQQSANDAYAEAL
# Method: as §1
# [10] = system: T10, Rep nickase domain of wheat dwarf virus
# T10 sequence (Rep 1-137, printed without the tag): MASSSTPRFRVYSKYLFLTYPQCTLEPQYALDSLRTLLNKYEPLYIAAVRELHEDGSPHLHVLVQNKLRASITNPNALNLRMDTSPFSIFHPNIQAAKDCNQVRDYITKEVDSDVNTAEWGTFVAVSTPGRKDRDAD
# Method: as §1
Sequence,uncleaved DNA left (log2) [1],uncleaved DNA left (log2) [2],uncleaved DNA left (log2) [3],uncleaved DNA left (log2) [4],uncleaved DNA left (log2) [5],uncleaved DNA left (log2) [6],uncleaved DNA left (log2) [7],uncleaved DNA left (log2) [8],uncleaved DNA left (log2) [9],uncleaved DNA left (log2) [10]
TAAAAAA,-0.0304,0.00586,-0.957,-2.23,-0.0122,-0.603,0.0886,0.0237,-0.101,-0.234
GGAAGTA,0.164,0.204,0.69,1.42,0.0393,1.98,0.286,0.0672,0.153,0.214
TACTATG,-0.0541,-0.0656,-0.415,-1.05,-0.0082,-0.962,-0.136,-0.131,-0.0226,-0.0774
CATTGTG,-0.0386,-0.178,0.215,1.38,-0.117,1.42,0.0841,-0.071,0.0922,-0.127
AGGACCT,0.0532,0.0456,0.395,1.12,-0.0964,1.57,0.0842,-0.0996,-0.0741,0.0926
AAAAGGG,0.078,0.0356,-0.253,-0.341,0.143,-0.741,0.203,0.11,0.0776,0.0135
TGTATGA,0.00415,-0.0662,0.112,0.31,0.0297,-0.234,0.0522,-0.0723,-0.0706,-0.0486
CAGCCAG,-0.0312,-0.284,-0.894,-0.59,-0.104,-0.993,-0.0814,-0.178,-0.11,-0.151
ATTTTCG,0.0704,0.0698,-0.878,-0.185,0.0957,-1.03,0.102,-0.0757,-0.0041,-0.0927
GATATGG,0.0641,0.0246,0.331,0.78,-0.0115,0.388,0.212,0.0444,0.0223,0.0979
ATGCCCA,-0.121,-0.0767,-0.0341,-0.649,-0.0787,-0.459,-0.156,-0.0826,-0.0879,-0.066
TACTGCG,-0.0535,-0.0373,-0.182,0.806,0.0223,0.804,0.0486,-0.189,-0.342,-0.189
TTATAGG,0.0105,-0.0628,0.429,1.31,0.061,1.56,0.119,0.0248,-0.00191,0.0938
CGACCAT,-0.0083,0.0201,0.214,0.576,0.048,0.538,-0.0249,0.067,0.0654,0.106
ATCTAAA,-0.022,0.017,-0.0289,-0.101,-0.074,-0.573,0.00847,0.0439,-0.0686,-0.0012
GCGGGCT,0.0757,0.125,0.744,1.5,0.0807,1.89,0.162,0.123,-0.00665,0.0298
GACTTGT,-0.0922,-0.052,0.194,0.616,-0.0264,0.921,-2.9,-0.0325,0.0869,0.128
AATTGAG,0.00503,0.0414,-0.436,0.909,0.0922,-0.0905,0.125,0.0021,0.158,-0.0173
ATTTCTA,-0.139,-0.161,-0.0409,-1.54,-0.0331,-0.622,-0.332,-0.0165,0.0421,0.0995
GCTTTAA,0.0376,0.0466,0.135,0.323,0.0873,0.497,-0.0603,0.154,0.0411,0.0555
ATGACGG,0.0675,0.0972,0.256,0.897,0.124,1.24,0.123,0.119,-0.0322,0.0773
CGTAGCG,0.0805,-0.0166,-0.794,-0.601,0.0175,-1.16,0.172,-0.0361,-0.0573,-0.0425
ACGTGTG,0.00517,-0.0207,-0.842,-0.104,0.0959,-0.864,0.0975,0.0216,0.0604,-0.0782
CCGTTCA,0.0222,-0.0354,0.359,-0.0974,-0.132,0.142,-0.0651,-0.141,-0.0456,-0.112
CGATATG,0.0202,-0.0774,-0.157,0.565,-0.00518,0.991,0.0331,0.0242,0.0275,0.048
TCGGATC,0.107,0.0529,0.359,0.809,0.132,1.13,0.327,0.0184,0.151,0.0717
GAATGAT,-0.476,0.0487,-2.87,-2.22,0.0831,-1.52,-2.87,-2.2,-0.0391,-2.48
AAACAAC,-0.0812,-0.0287,-0.151,-2.27,-0.0702,-0.64,0.0165,-0.0453,-0.0916,0.0855
AGCATGT,-0.0593,0.0623,0.0517,0.405,-0.065,0.925,-0.0677,0.0273,-0.039,0.0142
TCATTGG,0.0232,0.054,-0.726,-0.749,0.0909,-1.2,0.166,-0.0533,0.0909,-0.0855
